# Test results taken from the supplement of paper PMC9334596.
# Where “and” joins values, the source holds several entries; their conditions need not be identical. Equal entries are not always repeated. Over roughly 5,300 compounds, “PER2::LUC luminescence relative to vehicle control” has its median near 0.96; the highest 2% begin near 1.3. The list shows a part of the results.
# Tested on: mPer2Luc MEF
# Experiment: PER2::LUC luminescence relative to vehicle control (fold of vehicle); higher = higher PER2::LUC reporter signal
# Settings: 10 µM
# Method in brief: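 Compounds from commercial libraries were added at 10 μM to 384-well plates seeded 48 h earlier with ~3000 mPer2Luc mouse embryonic fibroblasts per well. The cells were kept in DMEM with 10% FBS at 37 °C and 5% CO2. Luminescence was read with ONE-Glo 24 h and 30 h after treatment, then an alamarBlue viability assay was run. Values are PER2::LUC luminescence relative to vehicle control, as fold change.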
SMILES,PER2::LUC luminescence (time after treatment 24 h),PER2::LUC luminescence (time after treatment 30 h)
C=C(C)[C@@H]1CC[C@]2(C(=O)O)CC[C@]3(C)[C@H](CC[C@@H]4[C@@]5(C)CC[C@H](O)C(C)(C)[C@@H]5CC[C@]43C)[C@@H]12,0.994,0.925
CCCCCN(C)CCC(O)(P(=O)(O)O)P(=O)(O)O,0.993 and 1.05,1.11 and 0.887
O=C(O)C1=C[C@@H](O)[C@@H](O)[C@H](O)C1,1.04,0.972
C1N2CN3CN1CN(C2)C3,0.971 and 1.17,0.942 and 0.974
C[Se]CC[C@H](N)C(=O)O,0.995,1.04
Nc1ncnc2c1ncn2[C@@H]1O[C@H](CO)C[C@@H]1O,0.952,0.956
O=C(O)C1CCNCC1,0.958,0.804
CONC(=O)c1ccccc1Nc1cc(Nc2cc(C)nn2C(C)C)ncc1Cl,0.8,0.783
CC1(C)CCC(NC(=O)[C@@H](N)CCC(=O)O)CC1,0.948,1
CC(CCC(=O)O)[C@H]1CCC2C3C[C@H](O)[C@@H]4C[C@H](O)CC[C@]4(C)C3CC[C@@]21C (stereo partly drawn),1.03,1
COc1cc(O)c(C(=O)/C=C/c2ccc(OC)c(O)c2)c(OC)c1,1.08,1
CN(C)c1cnccn1,0.575,1.03
C=CCc1ccc(O)c(OC)c1,0.904,0.736
OC[C@@H](O)[C@@H](O)[C@H](O)[C@H](O)CO,0.948 and 0.906,0.932 and 0.967
C=CC(N)CCC(=O)O (racemic),1.06,0.823
CC1(C)CCC=[N+]1[O-],0.993,0.977
CCCC[C@@H](C)/C=C(C)/C=C(\C)C(=O)NC1=C[C@@](O)(/C=C/C=C/C=C/C(=O)NC2=C(O)CCC2=O)[C@@H]2O[C@@H]2C1=O,0.951,0.934
C[C@H](NCc1ccc(OCc2cccc(F)c2)cc1)C(N)=O,1.22 and 1.67,1.5 and 1.51
CC(=O)OCC(=O)NCCCOc1cccc(CN2CCCCC2)c1,0.981,0.932
CCn1cc(C(=O)O)c(=O)c2cc(F)c(N3CCNCC3)nc21,1.12 and 0.972,1.18 and 0.886
C[C@@H]1CN(CCCn2c3ccccc3c3ccccc32)C[C@H](C)N1,0.66,0.661
CC(C(=O)O)c1cccc(Oc2ccccc2)c1 (stereo not drawn),1.05 and 1.13,0.945 and 1.02

SMILES,PER2::LUC luminescence (time after treatment 24 h),PER2::LUC luminescence (time after treatment 30 h)
O=C(O)CN(CCN(CC(=O)O)CC(=O)O)CC(=O)O.[Na+].[Na+].[Na+],0.945,0.908
COc1ccccc1-c1coc2cc(O)ccc2c1=O,1.14,1.04
Oc1ccc(C2CNCCc3c2cc(O)c(O)c3Cl)cc1 (stereo not drawn),–,1.12 and 0.881 and 0.928
COC(=O)C[C@H]1C(C)(C)[C@@H](O)[C@@H]2CC3=C4C=C(OC)O[C@@H](c5ccoc5)[C@]4(C)CCC3[C@@]1(C)C2=O (stereo partly drawn),1.1,1.13
COc1ccc2c(C)cc(=O)oc2c1,0.984,1.02
CC(C)[C@H](NC(=O)CCCCCN1C(=O)C=CC1=O)C(=O)N[C@@H](CCCNC(N)=O)C(=O)Nc1ccc(COC(=O)Oc2ccc([N+](=O)[O-])cc2)cc1,0.958,1.07
COc1cc(OC)c2c(=O)cc(-c3ccccc3)oc2c1,1.01,1.12
COc1cc(C(=S)N2CCOCC2)ccc1O,1.07,0.96
O=C1OC(c2ccc(O)cc2)(c2ccc(O)cc2)c2ccccc21,1.21,0.901
CCCc1ncc(C[n+]2ccccc2C)c(N)n1,1.03,0.845
OC[C@H]1OC(O)[C@H](O)[C@@H](O)[C@@H]1O (stereo partly drawn),1,0.988
CNc1cc2c(Nc3cccc(Br)c3)ncnc2cn1,0.876,0.747
O=C1NC(=O)C(c2ccccc2[N+](=O)[O-])=C1Nc1ccc(O)c(Cl)c1,1.12,1.17
C=CC(C)(O)CCC=C(C)CCC=C(C)C (mixture of isomers),0.972,0.961
COc1cc(C)c(C(=O)O)c(O)c1,0.887,0.965
CC(C)NCC(O)c1ccc(O)c(O)c1 (racemic),1.25,0.982
COc1cc(F)c(C(C)C)cc1-c1ccc(C(F)(F)F)cc1CN1C(=O)O[C@H](c2cc(C(F)(F)F)cc(C(F)(F)F)c2)[C@@H]1C,1.22,1.14
CO[C@H]1/C=C/O[C@@]2(C)Oc3c(C)c(O)c4c(O)c(c(/C=N/N5CCN(C)CC5)c(O)c4c3C2=O)NC(=O)/C(C)=C\C=C\[C@H](C)[C@H](O)[C@@H](C)[C@@H](O)[C@@H](C)[C@H](OC(C)=O)[C@@H]1C,1 and 0.955,0.891 and 0.875
C[C@@H]1CC[C@H]2C(C)(C)[C@H]3C[C@@]12CC[C@@]3(C)O,1.11,1.04
Cc1c(Cl)cccc1Nc1ccccc1C(=O)O,0.934,1.2
CCCSc1ccc2[nH]c(NC(=O)OC)nc2c1,0.764,0.909
CC(C)Nc1cc(-c2c[nH]c(C(=O)N[C@H](CO)c3cccc(Cl)c3)c2)c(Cl)cn1,0.441,0.323

SMILES,PER2::LUC luminescence (time after treatment 24 h),PER2::LUC luminescence (time after treatment 30 h)
Cc1ccc(N(CC2=NCCN2)c2cccc(O)c2)cc1,0.996 and 0.875 and 0.571,0.905 and 0.86 and 0.96
CNc1ncnc2c1ncn2[C@H]1C[C@H](O)[C@@H](CO)O1,1.04,0.963
COc1cc2occ(-c3ccc(OC)c(OC)c3OC)c(=O)c2cc1OC,0.954,0.925
CNC[C@@H](O)c1ccc(O)c(O)c1,1.31,1.31
COc1ccc2[nH]cc(CCNC(=O)C3CC3)c2c1,0.901,0.938
CCc1ccc(CCOc2ccc(CC3SC(=O)NC3=O)cc2)nc1 (stereo not drawn),0.97 and 0.926 and 0.927,1.11 and 0.952 and 0.834
CC[n+]1c(/C=C/C=C2/N(C)c3ccccc3C2(C)C)sc2ccccc21,0.0519,0.0512
O=C(O)c1ccccc1-c1c2cc(I)c(=O)c(I)c-2oc2c(I)c(O)c(I)cc12,0.805,0.761
CC(C)(C)c1ccc(/C=C/C(=O)Nc2ccc3c(c2)OCCO3)cc1,0.942,1.11
CNC(=O)[C@H]1O[C@@H](n2cnc3c(N)ncnc32)[C@H](O)[C@@H]1O,1.11,1.03
CCCCCCCCCCCCCCCC(=O)NCC(COP(=O)([O-])OCC[N+](C)(C)C)OCC (racemic),0.878,0.866
CC(=O)OCC(=O)[C@H]1CC[C@H]2[C@@H]3CC=C4C[C@@H](O)CC[C@]4(C)[C@H]3CC[C@]12C,0.899,0.876
CC1=CC(=O)[C@H]2C(C)(C)CCC[C@]2(C)[C@@]1(O)CCc1ccoc1,0.897,0.907
NCCCCC(=O)O,1.07 and 0.935,1.05 and 0.888
c1ccc(CC2=NCCN2)cc1,0.877,0.951
CC(C)(Oc1ccc(CCNC(=O)c2ccc(Cl)cc2)cc1)C(=O)O,0.844,0.913
OCCN1CCN(CCCN2c3ccccc3Sc3ccc(C(F)(F)F)cc32)CC1,0.701 and 0.656,0.61 and 0.647
O=C(O)CCc1nc(-c2ccccc2)c(-c2ccccc2)o1,1,0.853
CC1(C)C=Cc2c(c3c(c4c(=O)c(-c5ccc(O)cc5)coc24)OC(C)(C)CC3)O1,0.576,0.757
O=C(c1cc(Cc2n[nH]c(=O)c3ccccc23)ccc1F)N1CCN(C(=O)C2CC2)CC1,0.993,0.823
CCc1nn(CCO)c(CC)c1Oc1cc(C#N)cc(C#N)c1,1.08,1.12
O=C(O)CCCc1c[nH]c2ccccc12,1.06,1.08

SMILES,PER2::LUC luminescence (time after treatment 24 h),PER2::LUC luminescence (time after treatment 30 h)
CC(C)[C@@H](C)/C=C/[C@@H](C)[C@H]1CC[C@H]2C3=CC=C4C[C@@H](O)CC[C@]4(C)[C@H]3CC[C@]12C,0.931,1.01
O=C1c2ccccc2C(=O)C1c1ccccc1,1.05 and 0.913,1 and 0.991
Clc1ccc2c(c1)C(N1CCNCC1)=Nc1ccccc1O2,0.542,0.503
CC[C@H]1OC(=O)[C@H](C)[C@@H](O[C@H]2C[C@@](C)(OC)[C@@H](O)[C@H](C)O2)[C@H](C)[C@@H](O[C@@H]2O[C@H](C)C[C@H](N(C)C)[C@H]2O)[C@](C)(O)C[C@@H](C)C(=O)[C@H](C)[C@@H](O)[C@]1(C)O,0.913 and 0.822,0.946 and 0.902
CC(C(=O)O)c1ccc(CC2CCCC2=O)cc1 (stereo not drawn),0.779 and 1.02,1.36 and 1.08
O=C(O)CCc1c(C(=O)O)[nH]c2cc(Cl)cc(Cl)c12,1.03,0.901
CC1=C(/C=C/C(C)=C/C=C/C(C)=C/C=C/C=C(C)/C=C/C=C(C)/C=C/C2=C(C)CCCC2(C)C)C(C)(C)CCC1,1.07,0.941
NC(=O)c1ccccc1O,1.18,0.839
CCCCN1CCC(n2c(=O)[nH]c3ccccc32)CC1,0.829,0.913
CC1(C)CCC(c2ccc(Cl)cc2)=C(CN2CCN(c3ccc(C(=O)NS(=O)(=O)c4ccc(N[C@H](CCN5CCOCC5)CSc5ccccc5)c(S(=O)(=O)C(F)(F)F)c4)cc3)CC2)C1,0.836 and 0.446,0.873 and 0.394
O=C(COc1ccc(C(=O)c2ccccc2)cc1)NC1CCN(Cc2ccccc2)CC1,0.834,0.796
COc1ccc(C(=O)CCC(=O)O)c2ccccc12,0.962,0.886
CO[C@H]1[C@H](OC(=O)c2ccc(C)[nH]2)[C@H](O)[C@@H](Oc2ccc3c(O)c(NC(=O)c4c[nH]c(C(=O)Nc5c(O)c6ccc(O[C@H]7OC(C)(C)[C@@H](OC)[C@H](OC(=O)c8ccc(C)[nH]8)[C@@H]7O)c(C)c6oc5=O)c4C)c(=O)oc3c2C)OC1(C)C,1.1,1.13
Nc1nc(F)nc2c1ncn2[C@@H]1O[C@H](COP(=O)(O)O)[C@@H](O)[C@@H]1O,0.978,0.923
O=C(NOCC1CC1)c1ccc(F)c(F)c1Nc1ccc(I)cc1Cl,0.886 and 0.469,0.637 and 0.442
CCOC(=O)N1CCC(=C2c3ccc(Cl)cc3CCc3cccnc32)CC1,0.934,0.965
N[C@H](CC(=O)O)C(=O)O,1.09,1.08
Oc1c(Br)cc(Br)c2cccnc12,1.15 and 1.02,0.814 and 1.13
COc1ccc(-c2coc3cc(O)ccc3c2=O)cc1,1.77,1.97
CN1CCN(S(=O)(=O)c2ccc(-c3cnc(N)c(C(=O)Nc4cccnc4)n3)cc2)CC1,1.01,0.552
CNc1nc(-c2ccc3c(N)n[nH]c3c2)cc(N2C[C@@H](C(=O)NC3CCCCC3)CC[C@H]2C)n1,0.538,0.486
